According to PubChem BioAssay AID588855 (National Center for Advancing Translational Sciences (NCATS), 2011):
Screen size: about 410,000 compounds; about 5,000 (1.2%) were called active. The shares of active, inactive and inconclusive entries below differ from those in the screen. The call rests on the fitted dose curve; in most records, active means well fitted inhibition curve with a large enough effect; inconclusive means small, poorly fitted or top-dose-only effect; inactive means no such curve, though single readings can be large or run the other way. Potencies beside an inconclusive call are fits to weak or partial responses and may not hold up.

Experiment: qHTS for Inhibitors of TGF-b; further: nearly all actives have a fitted effect of over 65% in size
Conditions: HepG2 CAGA-GFP TGF-b/SMAD3 reporter, GFP fluorescence, 18 h, TGF-beta stimulated, 500 pg/mL final; series mostly up to 46.1 µM
Summary of the method: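 HEPG2 CAGA-GFP, 1000 cells/well; 2 h settle, 37 C; cpd via pin tool; TGF-b 500 pg/mL final; 18 h, 37 C; GFP imaging ex488/em500-530; %Activity normalised to -TGF-b and +DMSO controls; CRC fit, curve class.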
Potency means the concentration at half of the fitted maximal effect; tags describe the fitted curve by direction and shape.

SMILES | Potency
C=CCCN(Cc1ccccc1)S(=O)(=O)c1ccccc1Br | inconclusive: 11.2 µM [inhibitor, single point]
COc1ccccc1C(=O)NCCC(=O)N1CC(C)OC(C)C1 (stereo unspecified) | inconclusive: 6.31 µM [inhibitor, single point]
CN(Cc1ccccc1)c1nc2c(c(=O)[nH]c(=O)n2C)n1CCCc1ccccc1 | inconclusive: 35.5 µM [inhibitor, single point]
COc1cc2c(cc1OC)CN(CC(=O)Nc1ccc(C)cc1)CC2 | inactive
COc1ccc(-n2cc(-c3ccccc3)c3c(NCCCN4CCOCC4)ncnc32)cc1 | inactive
Cc1ccc(-c2csc(NCCn3c(C)nc4cc(C(F)(F)F)ccc43)n2)cc1 | inconclusive: 35.5 µM [inhibitor, partial curve, poor fit]
Cc1cccc(C)c1Nc1c(-c2ccccn2)nc2ccccn12 | inconclusive: 22.4 µM [inhibitor, single point]
Cc1ccc(S(N)(=O)=O)cc1NC(=O)c1ccc2c3c(cccc13)CC2 | inconclusive: 11.2 µM [inhibitor, partial curve]
CCOC(=O)c1ccc(Nc2cc(C)nc3nc(C)nn23)cc1 | inconclusive: 35.5 µM [inhibitor, single point]
COc1ccccc1-c1sc2cc3c(cc2c1-c1ccc(O)cc1)OCO3 | inconclusive: 22.4 µM [inhibitor, single point]
Cc1ccc(S(=O)(=O)Nc2ccc3c(c2)CCCN3C(=O)c2cccs2)cc1C | inconclusive: 17.8 µM [inhibitor, single point]
COc1cc2c(NC3CCN(C)CC3)nc(N3CCN(C)CC3)nc2cc1OCCOCCN(C)C | inconclusive: 3.98 µM [inhibitor, single point]
Cc1nc(CC(=O)Nc2nccs2)cs1 | inconclusive: 35.5 µM [inhibitor, single point]
O=C(O)CN1C(=O)/C(=C\c2cn(-c3ccccc3)nc2-c2ccccc2)SC1=S | inactive
O=C(N/N=C/c1ccccc1)c1[nH]c2ccc(Br)cc2c1-c1ccccc1 | inconclusive: 1.26 µM [inhibitor, partial curve, poor fit]
CCN(CC)C(=O)[C@H]1C[C@H](CC(=O)NCCCn2ccnc2)C(=O)N2CCc3c([nH]c4ccc(Cl)cc34)[C@]12C | inconclusive: 35.5 µM [inhibitor, single point]
CC(C)(C)NC(=O)NC(=O)CN1CCN(S(=O)(=O)c2ccc3c(c2)CCCC3)CC1 | inconclusive: 12.6 µM [inhibitor, partial curve]
O=C(Nc1nccs1)c1ccc(COc2c(F)c(F)cc(F)c2F)o1 | inconclusive: 35.5 µM [inhibitor, single point]
O=C(CCCn1c(=O)[nH]c2cc(Cl)ccc2c1=O)NCCCN1CCN(c2ccc(F)cc2)CC1 | inconclusive: 15.8 µM [inhibitor, single point]
CN(C)S(=O)(=O)Oc1ccsc1C(=O)Nc1ccc(Cl)c(Cl)c1 | inconclusive: 35.5 µM [inhibitor, single point]
Nc1cccc(CCc2nc3cc4ccccc4cc3[nH]2)c1 | inconclusive: 35.5 µM [inhibitor, partial curve, poor fit]

SMILES | Potency
CCc1cc(=O)oc2c(C)c3c(cc12)CN(CCc1ccccc1)CO3 | inactive
CN(CCC#N)c1ncnc2scc(-c3ccccc3)c12 | inconclusive: 12.6 µM [inhibitor, single point]
CCCCOc1ccc(NC(=O)CN2CCN(Cc3ccccc3)CC2)cc1 | inconclusive: 35.5 µM [inhibitor, single point]
COCCOC(=O)c1[nH]c2c(c1C)C(=O)CC(c1ccccc1)C2 (stereo unspecified) | active: 10 µM
CCC[C@@H](CN1CCC[C@H]1CN1C(N)=NC[C@H]1CC(C)C)N1C[C@@H]([C@H](C)CC)N(CCc2ccc(Cl)c(Cl)c2)C1=N | inactive
COc1ccc(-c2cc(C(=O)Nc3ccc(C)c(N)c3)c3ccccc3n2)cc1 | inconclusive: 31.6 µM [inhibitor, single point]
CNc1ccc(/C=C\CCCO)cn1 | inactive
Cc1ccc(C)c(-n2nnnc2SCC(=O)Nc2c(C)n(C)n(-c3ccccc3)c2=O)c1 | inconclusive: 7.08 µM [inhibitor, partial curve, poor fit]
c1ccc(-c2cc(-c3nnc4n3N=C(c3ccc5ccccc5c3)CS4)[nH]n2)cc1 | inconclusive: 35.5 µM [inhibitor, single point]
Cc1cc(C)c(C#N)c(N2CCN(CCOc3ccc(Cl)cc3)CC2)n1 | inconclusive: 25.1 µM [inhibitor, single point]
Cc1ccc(NS(=O)(=O)c2ccc(-c3cc(C)no3)cc2)c(C)c1 | active: 12.6 µM
CCC1CCCCN1CCCNC(=O)c1sc2nc(C)cc(C)c2c1-n1cccc1 (stereo unspecified) | inconclusive: 35.5 µM [inhibitor, single point]
Clc1cc(Br)ccc1OCCCNCc1ccccc1 | active: 11.2 µM
CNC(=O)c1ccc(-c2sc3nc(N4CCOCC4)c4c(c3c2N)CC(C)(C)OC4)o1 | inactive
O=C(COC(=O)/C=C/c1ccccc1)NC1CCCCCC1 | inactive
O=C(c1ccc2c(c1)N(Cc1cccc(Cl)c1)C(=O)c1ccccc1S2(=O)=O)N1CCN(Cc2ccccc2)CC1 | inconclusive: 11.2 µM [inhibitor, partial curve]
CC(C)NC(=O)N(C)C[C@H]1Oc2ccc(NS(=O)(=O)c3ccc(Cl)cc3)cc2CC(=O)N([C@@H](C)CO)C[C@@H]1C | inconclusive: 0.316 µM [inhibitor, full curve]
Cc1ccc(NC(=O)c2sc3ncn(CC(=O)N4CCN(c5ccccn5)CC4)c(=O)c3c2C)cc1Cl | inconclusive: 8.91 µM [inhibitor, partial curve]
CCOc1ccc(/C(O)=C2/C(=O)C(=O)N(CC3CCCO3)C2c2cccs2)cc1 (stereo unspecified) | inconclusive: 4.47 µM [inhibitor, full curve]
O=C(CSc1nnc(COc2ccccc2)n1-c1ccccc1)c1cccs1 | inconclusive: 35.5 µM [inhibitor, single point]
